# Test results taken from the supplement of paper PMC8728848.
# Some of the results follow.
# B1: Epa1 (Candida glabrata), Q6FUW5_CANGA (protein)
# chain: MILNPALFLNKCVCIYTTLILLLLTNGGYATSSNDISLASKDPTTFPLGCSPDITTPKKGLSMELYSYDFRKKGSYPCWDAAYLDPNYPRTGYKSHRLLAKVDGVTGNINFYYHATKGCTPQLGHLPASYNYPKPLTMTNFTMLLYGYFRPKVTGFHTFTISADDLLFVNFGAGNAFDCCRRDSSADHFGNYQAYAIWGSKTAKDELTVHLDAGVYYPIRLFYNNREYDGALSFTFKTESNENTVSDFSEYFFSLDDTEEGCPGLISYDSSCASVKTSKIIGIDYHTETPNENLVPITKTIYHLGIPCTGTTTTPLCGSGFYDPLANKCVTINTSSTSSVTKTTSHTTSKEVSFHSSISSQKTLIPKSIPSPYGPIKSQSIPTEMETSSEISSSEYAFSDVISTPSHSPYTKKHSSLNSSSYTSTVIHSLTSYSISQGIFSTSLSEQNITSKSSTDKFSTATSMSNSITQSSIIISQSSTNNENYTTTSMHTSSDKISTETLNNSISTTTSILFSNSSTILKNNTTIISSDKDTHYHPVNPTIVCSTNKTEIICASITQPSISNSNNHWSSSVLRFNSTTVRSTLPSSAGSNETSINVPFSSSTESNASTSSTSTSNSKTVRSTLPSSAGSNETSINVPFSSSTESNTSTSSTSTSNSKTVRSTLPSSAGSNETSINVPFSSSTESNASTSSTSTSNSKTVRSTPFSSAGIIMTSLSQRNNKSASSYASSNSKCYNTADSCRKVHSTPSYLLTSSYTSEGVDYDCSLVSTKLKINDTNCLNNKHTTKSCLKTSVTTTIPTLEIKTARKSSSNTIGLHSYPTSSPNKSISSAPIIGYISSFKTIKTASPSYQTSDLTTITTITSLNNPGSTAVENTHESNDKSRKTSSNDISSKHSVIKETKDAVESSNKSHQTNTLKCSSIIIASSSHNSYESLGGTTLTLTLSKVYSPQNNDTLPFLEISEVNPSRTVLPESSKMMQYLTSTEERNKTARNTIATNIVSISTFHFEGEGNAIRMGYTQLLLMLIGIIVMNIGT
# Columns and labels:
# Assay in all cases: glycan array binding signal (z-score within array); higher = stronger binding
# Settings in all cases: glycan notation: IUPAC condensed, linker removed
# [1] = target: Fuc(a1-2)Gal
# In short: (§1)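 The binding signal is a Z-score computed within each array and averaged over linkers. Arrays of the same protein sequence at different concentrations or buffers were also averaged together. Data originate from 3228 arrays in the Consortium for Functional Glycomics database, kept only where the protein sequence was available.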
# [2] = target: Fuc(a1-2)Gal(b1-3)GalNAc
# In short: as §1
# [3] = target: Fuc(a1-2)Gal(b1-3)GalNAc(b1-3)Gal
# In short: as §1
# [4] = target: Fuc(a1-2)Gal(b1-3)GalNAc(b1-3)Gal(a1-4)Gal(b1-4)Glc
# In short: as §1
# [5] = target: Fuc(a1-2)Gal(b1-3)GalNAc(b1-3)Gal(b1-4)Glc
# In short: as §1
# [6] = target: Fuc(a1-2)Gal(b1-3)GalNAc(b1-4)[Neu5Ac(a2-3)]Gal(b1-4)Glc
# In short: as §1
# [7] = target: Fuc(a1-2)Gal(b1-3)[Fuc(a1-4)]GlcNAc
# In short: as §1
# [8] = target: Fuc(a1-2)Gal(b1-4)Glc
# In short: as §1
# [9] = target: Fuc(a1-2)Gal(b1-4)Glc6S
# In short: as §1
# [10] = target: Fuc(a1-2)Gal(b1-4)GlcNAc
# In short: as §1
# [11] = target: Fuc(a1-2)Gal(b1-4)GlcNAc(b1-3)Gal(b1-4)GlcNAc
# In short: as §1
# [12] = target: Fuc(a1-2)Gal(b1-4)GlcNAc(b1-3)Gal(b1-4)GlcNAc(b1-3)Gal(b1-4)GlcNAc
# In short: as §1
# [13] = target: Fuc(a1-2)Gal(b1-4)GlcNAc6S
# In short: as §1
# [14] = target: Fuc(a1-2)Gal(b1-4)[Fuc(a1-3)]GalNAc(b1-3)Gal(b1-4)[Fuc(a1-3)]GlcNAc
# In short: as §1
# [15] = target: Fuc(a1-2)Gal(b1-4)[Fuc(a1-3)]GalNAc(b1-3)Gal(b1-4)[Fuc(a1-3)]GlcNAc(b1-3)Gal(b1-4)[Fuc(a1-3)]GalNAc
# In short: as §1
# [16] = target: Fuc(a1-2)Gal(b1-4)[Fuc(a1-3)]GlcNAc
# In short: as §1
# [17] = target: Fuc(a1-2)Gal6S(b1-4)Glc
# In short: as §1
# [18] = target: Fuc(a1-2)Gal6S(b1-4)Glc6S
# In short: as §1
# [19] = target: Fuc(a1-2)Gal6S(b1-4)GlcNAc
# In short: as §1
# [20] = target: Fuc(a1-2)GlcNAc
# In short: as §1
# [21] = target: Fuc(a1-2)[Gal(a1-3)]Gal
# In short: as §1
# [22] = target: Fuc(a1-2)[Gal(a1-3)]Gal(b1-3)GlcNAc
# In short: as §1
# [23] = target: Fuc(a1-2)[Gal(a1-3)]Gal(b1-4)Glc
# In short: as §1
# [24] = target: Fuc(a1-2)[Gal(a1-3)]Gal(b1-4)GlcNAc
# In short: as §1
# [25] = target: Fuc(a1-2)[Gal(a1-3)]Gal(b1-4)[Fuc(a1-3)]GlcNAc
# In short: as §1
# [26] = target: Fuc(a1-2)[Gal(a1-4)]Gal(b1-4)GalNAc
# In short: as §1
# [27] = target: Fuc(a1-2)[GalNAc(a1-3)]Gal
# In short: as §1
# [28] = target: Fuc(a1-2)[GalNAc(a1-3)]Gal(b1-3)GlcNAc
# In short: as §1
# [29] = target: Fuc(a1-2)[GalNAc(a1-3)]Gal(b1-4)Glc
# In short: as §1
# [30] = target: Fuc(a1-2)[GalNAc(a1-3)]Gal(b1-4)GlcNAc
# In short: as §1
# [31] = target: Fuc(a1-2)[GalNAc(a1-3)]Gal(b1-4)[Fuc(a1-3)]GlcNAc
# In short: as §1
# [32] = target: Fuc(a1-2)[GalNAc(a1-4)]Gal(b1-4)GlcNAc
# In short: as §1
# [33] = target: Fuc(a1-3)GlcNAc
# In short: as §1
# [34] = target: Fuc(a1-3)[Gal(b1-4)]Glc6S
# In short: as §1
# [35] = target: Fuc(a1-3)[Gal(b1-4)]GlcNAc
# In short: as §1
# [36] = target: Fuc(a1-3)[Gal(b1-4)]GlcNAc(b1-3)Gal(b1-3)[Fuc(a1-4)]GlcNAc
# In short: as §1
# [37] = target: Fuc(a1-3)[Gal(b1-4)]GlcNAc(b1-4)Gal(b1-4)[Fuc(a1-3)]GlcNAc
# In short: as §1
# [38] = target: Fuc(a1-3)[Gal(b1-4)]GlcNAc(b1-4)Gal(b1-4)[Fuc(a1-3)]GlcNAc(b1-4)Gal(b1-4)[Fuc(a1-3)]GlcNAc
# In short: as §1
# [39] = target: Fuc(a1-3)[Gal(b1-4)]GlcNAc6S
# In short: as §1
# [40] = target: Fuc(a1-3)[Gal3S(b1-4)]Glc
# In short: as §1
# [41] = target: Fuc(a1-3)[Gal3S(b1-4)]Glc6S
# In short: as §1
# [42] = target: Fuc(a1-3)[Gal3S(b1-4)]GlcNAc
# In short: as §1
# [43] = target: Fuc(a1-3)[Gal3S(b1-4)]GlcNAc6S
# In short: as §1
# [44] = target: Fuc(a1-3)[GalNAc(b1-4)]Gal(b1-4)GlcNAc
# In short: as §1
# [45] = target: Fuc(a1-4)GlcNAc
# In short: as §1
# [46] = target: Fuc(b1-3)GlcNAc
# In short: as §1
# [47] = target: Gal(a1-2)Gal
# In short: as §1
# [48] = target: Gal(a1-3)Gal
# In short: as §1
# [49] = target: Gal(a1-3)Gal(b1-3)Glc
# In short: as §1
# [50] = target: Gal(a1-3)Gal(b1-3)GlcNAc
# In short: as §1
# [51] = target: Gal(a1-3)Gal(b1-4)GlcNAc
# In short: as §1
# [52] = target: Gal(a1-3)Gal(b1-4)[Fuc(a1-3)]GalNAc
# In short: as §1
# [53] = target: Gal(a1-3)GlcNAc
# In short: as §1
# [54] = target: Gal(a1-3)[Gal(a1-4)]Gal(b1-4)GlcNAc
# In short: as §1
# [55] = target: Gal(a1-4)Gal(b1-4)Gal
# In short: as §1
# [56] = target: Gal(a1-4)Gal(b1-4)GalNAc
# In short: as §1
# [57] = target: Gal(a1-4)GlcNAc
# In short: as §1
# [58] = target: Gal(a1-6)Glc
# In short: as §1
# [59] = target: Gal(b1-2)Gal
# In short: as §1
# [60] = target: Gal(b1-3)Gal
# In short: as §1
binder,measurement,setting,value
B1,glycan array binding signal (z-score),[1],-0.551
same,glycan array binding signal (z-score),[2],-0.554
same,glycan array binding signal (z-score),[3],-0.555
same,glycan array binding signal (z-score),[4],-0.549
same,glycan array binding signal (z-score),[5],-0.554
same,glycan array binding signal (z-score),[6],-0.198
same,glycan array binding signal (z-score),[7],-0.553
same,glycan array binding signal (z-score),[8],-0.556
same,glycan array binding signal (z-score),[9],-0.553
same,glycan array binding signal (z-score),[10],-0.552
same,glycan array binding signal (z-score),[11],-0.548
same,glycan array binding signal (z-score),[12],-0.555
same,glycan array binding signal (z-score),[13],1.65
same,glycan array binding signal (z-score),[14],-0.555
same,glycan array binding signal (z-score),[15],-0.55
same,glycan array binding signal (z-score),[16],-0.553
same,glycan array binding signal (z-score),[17],-0.554
same,glycan array binding signal (z-score),[18],-0.55
same,glycan array binding signal (z-score),[19],-0.128
same,glycan array binding signal (z-score),[20],-0.542
same,glycan array binding signal (z-score),[21],-0.553
same,glycan array binding signal (z-score),[22],-0.553
same,glycan array binding signal (z-score),[23],-0.548
same,glycan array binding signal (z-score),[24],-0.552
same,glycan array binding signal (z-score),[25],-0.552
same,glycan array binding signal (z-score),[26],1.74
same,glycan array binding signal (z-score),[27],-0.553
same,glycan array binding signal (z-score),[28],-0.537
same,glycan array binding signal (z-score),[29],-0.551
same,glycan array binding signal (z-score),[30],-0.557
same,glycan array binding signal (z-score),[31],-0.552
same,glycan array binding signal (z-score),[32],-0.552
same,glycan array binding signal (z-score),[33],-0.549
same,glycan array binding signal (z-score),[34],-0.536
same,glycan array binding signal (z-score),[35],-0.549
same,glycan array binding signal (z-score),[36],-0.556
same,glycan array binding signal (z-score),[37],-0.551
same,glycan array binding signal (z-score),[38],-0.548
same,glycan array binding signal (z-score),[39],0.298
same,glycan array binding signal (z-score),[40],-0.555
same,glycan array binding signal (z-score),[41],-0.543
same,glycan array binding signal (z-score),[42],-0.55
same,glycan array binding signal (z-score),[43],-0.441
same,glycan array binding signal (z-score),[44],-0.555
same,glycan array binding signal (z-score),[45],-0.549
same,glycan array binding signal (z-score),[46],-0.555
same,glycan array binding signal (z-score),[47],0.111
same,glycan array binding signal (z-score),[48],0.75
same,glycan array binding signal (z-score),[49],-0.55
same,glycan array binding signal (z-score),[50],0.421
same,glycan array binding signal (z-score),[51],1.42
same,glycan array binding signal (z-score),[52],0.265
same,glycan array binding signal (z-score),[53],0.208
same,glycan array binding signal (z-score),[54],0.017
same,glycan array binding signal (z-score),[55],0.374
same,glycan array binding signal (z-score),[56],1.29
same,glycan array binding signal (z-score),[57],2.1
same,glycan array binding signal (z-score),[58],0.344
same,glycan array binding signal (z-score),[59],0.97
same,glycan array binding signal (z-score),[60],2.4
